Patent publication US20230255906A1, “Targeting Serpin B9 in Cancer” (The Brigham and Women`s Hospital, Inc., priority 2020, published 2023)
Where “and” joins values, the source holds several entries; their conditions need not be identical. Identical values can stand only once. At least one read-out could not be matched to a standard name with certainty.

system: B16 melanoma cells; assay: Caspase-3 activity assay (EnzChek Caspase-3 Assay Kit), caspase-3 induction in tumor cells; type: cell-based, mouse; details: not given
Description: The EnzChek® Caspase-3 Assay Kit was used to detect apoptosis by assaying for increases in caspase-3 activities. The basis for the assay was rhodamine 110 bis-(N-CBZ-L-aspartyl-L-glutamyl-L-valyl-L-aspartic acid amide) (Z-DEVD-R110). This substrate is a bisamide derivative of rhodamine 110 (R110) containing DEVD peptides covalently linked to each of R110's amino groups, thereby suppressing the dye's visible absorption and its fluorescence. Upon enzymatic cleavage, the nonfluorescent bisamide substrate is converted in a two-step process first to a fluorescent monoamide and then to an even more fluorescent R110.
At least 1×10^6 cells of the lysate were used for each reaction. B16 cells were treated with compounds to induce apoptosis. A negative control was prepared by incubating cells in the absence of compounds. The cells were incubated with compounds for 24 hrs and washed in PBS. Each cell sample or control was resuspended in 50 μL of the 1×cell lysis buffer. Cells were lysed by incubating on ice for 30 minutes, and the lysed cells were centrifuged to pellet the cellular debris. 50 μL of the supernatant was transferred from each sample to individual microplate wells. 50 μL of the 1× cell lysis buffer was used as a no-enzyme control to determine the background fluorescence of the substrate. 50 μL of the 2×substrate working solution was added to each sample and control. The microplate was covered, and the samples were incubated at room temperature for approximately 30 minutes. The fluorescence was measured by a fluorescence microplate reader (excitation/emission ˜496/520 nm) using excitation and emission filters.
The ability of this small molecule inhibitor to inhibit intracellular Sb9 was then evaluated. As a marker for cell penetration, the induction of caspase-3 activity in B16 melanoma cells as a surrogate marker for increased GrB activity was measured.
The induction of caspase-3 activity in B16 melanoma cells as a surrogate marker for increased GrB activity was also measured for other small molecules (compounds of Formulas (V) and (VI) as described herein).

With `O=C(c1ccc2oc(-c3ccc(C(F)(F)F)cc3)nc2c1)N1CC(O)C1` [1-({2-[4-(trifluoromethyl)phenyl]-1,3-benzoxazol-5-yl}carbonyl)azetidin-3-ol] the “Ratio of caspase-3 activity to Formula (III)” value was 0.1537 and 0.132.

same assay, conditions: control 3,4-dihydroxybenzoic acid

First: CCN(C)C(=O)c1ccc2ocnc2c1 [N-ethyl-N-methyl-1,3-benzoxazole-5-carboxamide]
Second: CCN(C)C(=O)c1ccc2oc(=O)[nH]c2c1 [N-ethyl-N-methyl-2-oxo-2,3-dihydro-1,3-benzoxazole-5-carboxamide]
The “Caspase-3 induction, Normalized to Control (%)” value of the first is lower: −25.8939% for the first, 141.1722% for the second.

First: CN(C)c1nc2c(C(=O)NC3CCCC3)cccc2o1 [N-cyclopentyl-2-(dimethylamino)-1,3-benzoxazole-4-carboxamide]
Second: CN(C)c1nc2c(C(=O)N3CCCC3)cccc2o1 [N,N-dimethyl-4-(pyrrolidine-1-carbonyl)-1,3-benzoxazol-2-amine]
The “Caspase-3 induction, Normalized to Control (%)” value of the first is higher: 143.3673% for the first, 137.2292% for the second.

Compared with `Cc1cc(O)c(O)cc1C(=O)NC1CCCC1` [N-cyclopentyl-4,5-dihydroxy-2-methylbenzamide], `CCOc1ccc(C(=O)NC2CCCC2)cc1O` [N-cyclopentyl-4-ethoxy-3-hydroxybenzamide] is higher in “Caspase-3 induction, Normalized to Control (%)” value: −0.82% for the first, 208.4760% for the second.

Compared with `COc1cc(C(=O)NCC2CCOCC2)cc(OC)c1O` [4-hydroxy-3,5-dimethoxy-N-[(oxan-4-yl)methyl]benzamide], `COc1cc(C(=O)NCC2CCOCC2)ccc1O` [4-hydroxy-3-methoxy-N-[(oxan-4-yl)methyl]benzamide] is higher in “Caspase-3 induction, Normalized to Control (%)” value: −37.0852% for the first, −27.0199% for the second.

First: CCOc1ccc(C(=O)N(C)CC)cc1O [4-ethoxy-N-ethyl-3-hydroxy-N-methylbenzamide]
Second: CCN(C)C(=O)c1ccc(O)c(OC)c1 [N-ethyl-4-hydroxy-3-methoxy-N-methylbenzamide]
The “Caspase-3 induction, Normalized to Control (%)” value of the first is lower: −10.805% for the first, 105.1753% for the second.

Going from `O=C(NC1CCCC1)c1ccc2nc(C3CCCCC3)oc2c1` [2-cyclohexyl-N-cyclopentyl-1,3-benzoxazole-6-carboxamide] to `O=C(NC1CCCC1)c1ccc2nc(C3CC3)oc2c1` [N-cyclopentyl-2-cyclopropyl-1,3-benzoxazole-6-carboxamide], the “Caspase-3 induction, Normalized to Control (%)” value falls from 273.9815% to 141.7844%.

First: CCOc1ccc(C(=O)NCCN(C)C)cc1O [N-[2-(dimethylamino)ethyl]-4-ethoxy-3-hydroxybenzamide]
Second: COc1cc(C(=O)NCCN(C)C)ccc1OCCC(C)C [N-[2-(dimethylamino)ethyl]-3-methoxy-4-(3-methylbutoxy)benzamide]
The “Caspase-3 induction, Normalized to Control (%)” value of the first is lower: 89.37% for the first, 216.4600% for the second.

Going from `COc1cc(C(=O)NCC(C)C)cc(OC)c1O` [4-hydroxy-3,5-dimethoxy-N-(2-methylpropyl)benzamide] to `COc1cc(C(=O)NCCN(C)C)cc(OC)c1O` [N-[2-(dimethylamino)ethyl]-4-hydroxy-3,5-dimethoxybenzamide], the “Caspase-3 induction, Normalized to Control (%)” value rises from 121.3081% to 179.138%.

Going from `COCCCNC(=O)c1ccc2nc(S)oc2c1` [N-(3-methoxypropyl)-2-sulfanyl-1,3-benzoxazole-6-carboxamide] to `COCCCNC(=O)c1ccc2nc(C(F)(F)C(F)(F)F)oc2c1` [N-(3-methoxypropyl)-2-(1,1,2,2,2-pentafluoroethyl)-1,3-benzoxazole-6-carboxamide], the “Caspase-3 induction, Normalized to Control (%)” value falls from 241.3829% to 136.5306%.

First: O=C(c1ccc2nc(-c3cc(Cl)cc(Cl)c3)oc2c1)N1CCCC1 [2-(3,5-dichlorophenyl)-6-(pyrrolidine-1-carbonyl)-1,3-benzoxazole]
Second: COCCCNC(=O)c1ccc2nc(-c3cc(Cl)cc(Cl)c3)oc2c1 [2-(3,5-dichlorophenyl)-N-(3-methoxypropyl)-1,3-benzoxazole-6-carboxamide]
The “Caspase-3 induction, Normalized to Control (%)” value of the first is higher: 177.7668% for the first, 110.7248% for the second.

Going from `CCN(C)C(=O)c1cc2c(cc1O)OCO2` [N-ethyl-6-hydroxy-N-methyl-2H-1,3-benzodioxole-5-carboxamide] to `CCN(C)C(=O)c1cc(O)c(O)cc1C` [N-ethyl-4,5-dihydroxy-N,2-dimethylbenzamide], the “Caspase-3 induction, Normalized to Control (%)” value falls from 186.0789% to 105.7300%.

First: CCN(C)C(=O)c1ccc2nc(C3CC3)oc2c1 [2-cyclopropyl-N-ethyl-N-methyl-1,3-benzoxazole-6-carboxamide]
Second: CCN(C)C(=O)c1ccc2nc(C3CCCCC3)oc2c1 [2-cyclohexyl-N-ethyl-N-methyl-1,3-benzoxazole-6-carboxamide]
The “Caspase-3 induction, Normalized to Control (%)” value of the first is higher: 296.8445% for the first, 199.7507% for the second.

Compared with `CN(C)c1nc2cccc(C(=O)NCc3ccccc3)c2o1` [N-benzyl-2-(dimethylamino)-1,3-benzoxazole-7-carboxamide], `Cc1cc(O)c(O)cc1C(=O)NCc1ccccc1` [N-benzyl-4,5-dihydroxy-2-methylbenzamide] is lower in “Caspase-3 induction, Normalized to Control (%)” value: 116.5453% for the first, 73.67% for the second.

Going from `CCN(C)C(=O)c1cccc2oc(N(C)C)nc12` [2-(dimethylamino)-N-ethyl-N-methyl-1,3-benzoxazole-4-carboxamide] to `COCCCNC(=O)c1cccc2oc(N(C)C)nc12` [2-(dimethylamino)-N-(3-methoxypropyl)-1,3-benzoxazole-4-carboxamide], the “Caspase-3 induction, Normalized to Control (%)” value falls from 128.9351% to 112.3914%.

Compared with `COc1cc(C(=O)NC2CCCC2)cc(OC)c1O` [N-cyclopentyl-4-hydroxy-3,5-dimethoxybenzamide], `COc1cc(Br)c(C(=O)NC2CCCC2)cc1OC` [2-bromo-N-cyclopentyl-4,5-dimethoxybenzamide] is lower in “Caspase-3 induction, Normalized to Control (%)” value: 132.3234% for the first, 54.35% for the second.

Going from `COc1cc(C(=O)NCC2CCOCC2)ccc1OC(C)C` [3-methoxy-N-[(oxan-4-yl)methyl]-4-(propan-2-yloxy)benzamide] to `COc1cc(C(=O)NCC2CCOC2)ccc1OC(C)C` (stereo not drawn) [3-methoxy-N-[(oxolan-3-yl)methyl]-4-(propan-2-yloxy)benzamide], the “Caspase-3 induction, Normalized to Control (%)” value rises from 3.872% to 188.3028%.

Going from `CCOc1ccc(C(=O)N2CCCC2)cc1O` [2-ethoxy-5-(pyrrolidine-1-carbonyl)phenol] to `CCOc1ccc(C(=O)NCC2CCOCC2)cc1O` [4-ethoxy-3-hydroxy-N-[(oxan-4-yl)methyl]benzamide], the “Caspase-3 induction, Normalized to Control (%)” value falls from 142.0304% to 113.0141%.

Going from `CCN(C)C(=O)c1ccc2nc(C(F)(F)C(F)(F)F)oc2c1` [N-ethyl-N-methyl-2-(1,1,2,2,2-pentafluoroethyl)-1,3-benzoxazole-6-carboxamide] to `O=C(NCc1ccccc1)c1ccc2nc(C(F)(F)C(F)(F)F)oc2c1` [N-benzyl-2-(1,1,2,2,2-pentafluoroethyl)-1,3-benzoxazole-6-carboxamide], the “Caspase-3 induction, Normalized to Control (%)” value falls from 120.4003% to 58.97%.

Compared with `CCN(C)C(=O)c1cc(OC)c(OC)cc1Br` [2-bromo-N-ethyl-4,5-dimethoxy-N-methylbenzamide], `COc1cc(Br)c(C(=O)NCCN(C)C)cc1OC` [2-bromo-N-[2-(dimethylamino)ethyl]-4,5-dimethoxybenzamide] is higher in “Caspase-3 induction, Normalized to Control (%)” value: −23.0138% for the first, −11.5266% for the second.

Compared with `O=C(NCc1ccccc1)c1ccc2nc(-c3cc(Cl)cc(Cl)c3)oc2c1` [N-benzyl-2-(3,5-dichlorophenyl)-1,3-benzoxazole-6-carboxamide], `O=C(NCc1ccccc1)c1ccc2nc(C3CCCCC3)oc2c1` [N-benzyl-2-cyclohexyl-1,3-benzoxazole-6-carboxamide] is lower in “Caspase-3 induction, Normalized to Control (%)” value: 96.98% for the first, 19.3878% for the second.

Going from `COCCCNC(=O)c1ccc2nc(C3CCCCC3)oc2c1` [2-cyclohexyl-N-(3-methoxypropyl)-1,3-benzoxazole-6-carboxamide] to `COCCCNC(=O)Cc1ccc2ocnc2c1` [2-(1,3-benzoxazol-5-yl)-N-(3-methoxypropyl)acetamide], the “Caspase-3 induction, Normalized to Control (%)” value rises from 78.1% to 111.9231%.

First: O=C(Cc1ccc2ocnc2c1)NC1CCCC1 [2-(1,3-benzoxazol-5-yl)-N-cyclopentylacetamide]
Second: COc1cc(C(=O)NCc2ccccc2)cc(OC)c1O [N-benzyl-4-hydroxy-3,5-dimethoxybenzamide]
The “Caspase-3 induction, Normalized to Control (%)” value of the first is higher: 184.3141% for the first, 143.7709% for the second.

Going from `Cc1cc(O)c(O)cc1C(=O)NCC(C)C` [4,5-dihydroxy-2-methyl-N-(2-methylpropyl)benzamide] to `CCN(C)C(=O)c1cc(OC)c(O)c(OC)c1` [N-ethyl-4-hydroxy-3,5-dimethoxy-N-methylbenzamide], the “Caspase-3 induction, Normalized to Control (%)” value falls from 122.0617% to 93.6233%.

With `CCN(C)C(=O)c1ccc2nc(-c3ccccc3)oc2c1` [N-ethyl-N-methyl-2-phenyl-1,3-benzoxazole-6-carboxamide] the “Caspase-3 induction, Normalized to Control (%)” value was −31.5227%.
